Laboratory results from the supplement of paper PMC8728848.
This is one part of the list.

Key:
Assay in all cases: glycan array binding signal (z-score within array); higher = stronger binding
Details in all cases: glycan notation: IUPAC condensed, linker removed
[1] = molecular target: Fuc(a1-2)Gal(b1-4)GlcNAc(b1-3)Gal(b1-4)GlcNAc(b1-2)Man(a1-3)[Fuc(a1-2)Gal(b1-4)GlcNAc(b1-3)Gal(b1-4)GlcNAc(b1-2)Man(a1-6)]Man(b1-4)GlcNAc(b1-4)GlcNAc
How it was run: (§1)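 Negative Z-scores can be read as non-binding. The Z-score is calculated within each array and then averaged across arrays of one protein sequence at different concentrations or buffers and across linkers. Arrays, 3228 in all, were curated from the Consortium for Functional Glycomics database and kept only where the protein sequence was available.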

[2] = molecular target: Fuc(a1-2)Gal(b1-4)GlcNAc(b1-3)Gal(b1-4)GlcNAc(b1-3)Gal(b1-4)GlcNAc
How it was run: as §1

[3] = molecular target: Fuc(a1-2)Gal(b1-4)GlcNAc(b1-3)GalNAc
How it was run: as §1

[4] = molecular target: Fuc(a1-2)Gal(b1-4)GlcNAc(b1-3)[Fuc(a1-2)Gal(b1-4)GlcNAc(b1-6)]GalNAc
How it was run: as §1

[5] = molecular target: Fuc(a1-2)Gal(b1-4)GlcNAc(b1-3)[Fuc(a1-3)[Gal(b1-4)]GlcNAc(b1-6)]Gal(b1-4)Glc
How it was run: as §1

[6] = molecular target: Fuc(a1-2)Gal(b1-4)GlcNAc(b1-6)GalNAc
How it was run: as §1

[7] = molecular target: Fuc(a1-2)Gal(b1-4)GlcNAc6S
How it was run: as §1

[8] = molecular target: Fuc(a1-2)Gal(b1-4)[Fuc(a1-3)]GlcNAc
How it was run: as §1

[9] = molecular target: Fuc(a1-2)Gal(b1-4)[Fuc(a1-3)]GlcNAc(b1-2)Man(a1-3)[Fuc(a1-2)Gal(b1-4)[Fuc(a1-3)]GlcNAc(b1-2)Man(a1-6)]Man(b1-4)GlcNAc(b1-4)[Fuc(a1-6)]GlcNAc
How it was run: as §1

[10] = molecular target: Fuc(a1-2)Gal(b1-4)[Fuc(a1-3)]GlcNAc(b1-2)[Fuc(a1-2)Gal(b1-4)[Fuc(a1-3)]GlcNAc(b1-4)]Man(a1-3)[Fuc(a1-2)Gal(b1-4)[Fuc(a1-3)]GlcNAc(b1-2)Man(a1-6)]Man(b1-4)GlcNAc(b1-4)GlcNAc
How it was run: as §1

[11] = molecular target: Fuc(a1-2)Gal(b1-4)[Fuc(a1-3)]GlcNAc(b1-3)Gal(b1-4)[Fuc(a1-3)]GlcNAc
How it was run: as §1

[12] = molecular target: Fuc(a1-2)Gal(b1-4)[Fuc(a1-3)]GlcNAc(b1-3)Gal(b1-4)[Fuc(a1-3)]GlcNAc(b1-3)Gal(b1-4)[Fuc(a1-3)]GlcNAc
How it was run: as §1

[13] = molecular target: Fuc(a1-2)Gal(b1-4)[Fuc(a1-3)]GlcNAc(b1-3)GalNAc
How it was run: as §1

[14] = molecular target: Fuc(a1-2)Gal(b1-4)[Fuc(a1-3)]GlcNAc(b1-3)[Neu5Ac(a2-6)Gal(b1-4)GlcNAc(b1-6)]Gal(b1-4)Glc
How it was run: as §1

[15] = molecular target: Fuc(a1-2)Gal3S(b1-4)GlcNAc
How it was run: as §1

[16] = molecular target: Fuc(a1-2)Gal6S(b1-3)GlcNAc
How it was run: as §1

[17] = molecular target: Fuc(a1-2)Gal6S(b1-3)GlcNAc6S
How it was run: as §1

[18] = molecular target: Fuc(a1-2)Gal6S(b1-4)Glc
How it was run: as §1

[19] = molecular target: Fuc(a1-2)Gal6S(b1-4)Glc6S
How it was run: as §1

[20] = molecular target: Fuc(a1-2)[Gal(a1-3)]Gal
How it was run: as §1

[21] = molecular target: Fuc(a1-2)[Gal(a1-3)]Gal(b1-3)GalNAc
How it was run: as §1

[22] = molecular target: Fuc(a1-2)[Gal(a1-3)]Gal(b1-3)GalNAc(b1-3)Gal(a1-4)Gal(b1-4)Glc
How it was run: as §1

[23] = molecular target: Fuc(a1-2)[Gal(a1-3)]Gal(b1-3)GlcNAc
How it was run: as §1

[24] = molecular target: Fuc(a1-2)[Gal(a1-3)]Gal(b1-3)GlcNAc(b1-2)Man(a1-3)[Fuc(a1-2)[Gal(a1-3)]Gal(b1-3)GlcNAc(b1-2)Man(a1-6)]Man(b1-4)GlcNAc(b1-4)GlcNAc
How it was run: as §1

[25] = molecular target: Fuc(a1-2)[Gal(a1-3)]Gal(b1-3)GlcNAc(b1-2)Man(a1-3)[Fuc(a1-2)[Gal(a1-3)]Gal(b1-3)GlcNAc(b1-2)Man(a1-6)]Man(b1-4)GlcNAc(b1-4)[Fuc(a1-6)]GlcNAc
How it was run: as §1

[26] = molecular target: Fuc(a1-2)[Gal(a1-3)]Gal(b1-3)GlcNAc(b1-3)GalNAc
How it was run: as §1

[27] = molecular target: Fuc(a1-2)[Gal(a1-3)]Gal(b1-3)GlcNAc(b1-6)GalNAc
How it was run: as §1

[28] = molecular target: Fuc(a1-2)[Gal(a1-3)]Gal(b1-4)Glc
How it was run: as §1

[29] = molecular target: Fuc(a1-2)[Gal(a1-3)]Gal(b1-4)GlcNAc
How it was run: as §1

[30] = molecular target: Fuc(a1-2)[Gal(a1-3)]Gal(b1-4)GlcNAc(b1-2)Man
How it was run: as §1

B1: PkBDPgamma (Plasmodium knowlesi) (protein)
chain: SAINQIFLQNNVMDKCNDKRKRGERDWDCPTEKDVCIPDRRYQLCMMEITNLVDTDTHFHSDIIFRKSYSRRRLIYDVGGRGDLLLKKYNNVYSEDLCKDIKWSLQDFGDIIMGTDMEGIGYSLVVQNNLRSIFGTGTSAELDRKKWWNDHKKDIWKAMILSVKEKNRYSAWNCKEDVQIKVEPQIYRWIREWGRDYMSEFREQRRKLNEKCEDKLYYSTMLICTLPPCNNACKSYDEWITGKKKQWDVLSTKFSSVKKAQKIETENIARAYDILKQELNGFNEVTFENEINKRDKLYNYFCVCIVQEARKNTQENVKNVGSGVESKAPSSNPINEAVKSSSGEGKVQEDSAHRSVNEGEGKSSTNEADPGSQPGAAASGGGSGGGTGGGVDLAPQMLRELQETNAALQDVRELLRQQVKEITFLKNTVMECDACGGPLDRNLPPLAPLGPTGGWSHPQFEK
- glycan array binding signal (z-score) [1]: 0.581
- glycan array binding signal (z-score) [2]: 0.551
- glycan array binding signal (z-score) [3]: 1.14
- glycan array binding signal (z-score) [4]: 0.417
- glycan array binding signal (z-score) [5]: -0.305
- glycan array binding signal (z-score) [6]: -0.358
- glycan array binding signal (z-score) [7]: -0.426
- glycan array binding signal (z-score) [8]: -0.073
- glycan array binding signal (z-score) [9]: -0.35
- glycan array binding signal (z-score) [10]: 0.541
- glycan array binding signal (z-score) [11]: -0.062
- glycan array binding signal (z-score) [12]: -0.273
- glycan array binding signal (z-score) [13]: -0.008
- glycan array binding signal (z-score) [14]: -0.309
- glycan array binding signal (z-score) [15]: 0.281
- glycan array binding signal (z-score) [16]: 0.072
- glycan array binding signal (z-score) [17]: 0.392
- glycan array binding signal (z-score) [18]: -0.08
- glycan array binding signal (z-score) [19]: 0.074
- glycan array binding signal (z-score) [20]: -0.271
- glycan array binding signal (z-score) [21]: -0.315
- glycan array binding signal (z-score) [22]: 0.02
- glycan array binding signal (z-score) [23]: 0.248
- glycan array binding signal (z-score) [24]: -0.122
- glycan array binding signal (z-score) [25]: -0.307
- glycan array binding signal (z-score) [26]: -0.705
- glycan array binding signal (z-score) [27]: 0.294
- glycan array binding signal (z-score) [28]: -0.178
- glycan array binding signal (z-score) [29]: -0.12
- glycan array binding signal (z-score) [30]: -0.629
